The record followed here is article PMC6212790.

The other results are listed elsewhere or left out. At the low end of the ranking the order means little.

The target of this assay is T1, GST-Rok (full length) (UniProt O34857).
T1 sequence: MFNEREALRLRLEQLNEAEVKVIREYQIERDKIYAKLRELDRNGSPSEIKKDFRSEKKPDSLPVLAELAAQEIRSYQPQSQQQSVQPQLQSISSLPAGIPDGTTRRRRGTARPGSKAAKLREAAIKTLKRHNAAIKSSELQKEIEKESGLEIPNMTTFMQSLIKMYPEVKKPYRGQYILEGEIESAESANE
The assay can be described thus: protein binding microarray.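 Also: rank score from −0.5 (least bound) to 0.5 (best bound).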 As to conditions: Rok is a gene silencer of Bacillus subtilis; high values mean tight binding; most listed sequences are background and not binding sites; double strand, one strand shown.
CCAGGGCA: the binding signal is -0.25 E-score. With GTGAAACA the figure was 0.0624 E-score. As for TCTTGACA, the figure is 0.0197 E-score; as for CAACTGTC, 0.0826 E-score. As for TCACATCA, the binding signal was found to be 0.0834 E-score.

As to TGATAACA, the binding signal was determined as 0.126 E-score. As for CGAATCCC, the figure is -0.125 E-score.

As for AGCGGGAG, the binding signal is -0.244 E-score.

For CGGTCGGA, the binding signal is -0.301 E-score. Consider GTTCTACA, for which the binding signal stood at 0.265 E-score.

Take GGGGCGAA: the binding signal was -0.227 E-score. For GTCCTGCA, the binding signal is -0.2 E-score. Regarding CTAATAAG, the binding signal was determined as 0.0873 E-score. With AAGATCCC the figure was -0.0989 E-score; with AAAACGCA, 0.107 E-score. As for TGGGCTAA, the figure is 0.0429 E-score; as for ATTAGGCC, -0.131 E-score; as for CGCTTGAC, -0.213 E-score.

Regarding ATGATTGA, the binding signal was determined as 0.0352 E-score. GTAGGGCA: the binding signal was -0.119 E-score. For CGTGCACC, the binding signal is -0.2 E-score. Regarding AGAGGTGA, the binding signal is -0.164 E-score. With TCGGCAGA the figure was -0.063 E-score; with ATCGACCC, 0.0163 E-score; with CATGAGCC, -0.15 E-score. With CAGAGCCG, the binding signal was -0.316 E-score. With CGGGAGCA the figure was -0.316 E-score; with CTATCATA, 0.207 E-score. TCAATGGA came in with a binding signal of 0.0724 E-score.

On to AATCCTTG, for which the binding signal was -0.011 E-score. With CTTCTCCC the figure was -0.255 E-score. As for ATTGCGAA, the figure is 0.169 E-score; as for ATACCGTG, 0.212 E-score; as for CAGCGCCG, -0.31 E-score. With AGTTAAAG, the binding signal is -0.00997 E-score. With AGTTACAA the figure was 0.186 E-score. As for GTTAAACA, the figure is 0.0864 E-score; as for AAAGCACA, -0.00894 E-score; as for ACAATTCA, 0.0585 E-score.

For ACTCACTA, the binding signal was determined as 0.177 E-score. CAATAACC returned a binding signal of 0.0248 E-score.

CCGATCGG: the binding signal was -0.294 E-score. With CGAAGCGA the figure was 0.07 E-score; with ACGATAGT, 0.324 E-score; with AATGGTTG, -0.109 E-score. TCCCTCCA: the binding signal is -0.329 E-score. As for ATATGTTC, the figure is 0.184 E-score. GAGGTGGC: the binding signal was -0.206 E-score. With GCAAAGGA the figure was -0.0739 E-score; with AGTGTTTA, 0.136 E-score; with CCCGGTCA, -0.142 E-score. With GAATATGA the figure was 0.0208 E-score; with AGTAAGCG, 0.0086 E-score; with GTTCACGA, -0.081 E-score. As for GTTCCAAC, the figure is -0.185 E-score; as for CAGTGGAC, -0.176 E-score. As for CAAGCCAC, the binding signal was -0.291 E-score.

Take GACCGGGC: the binding signal was -0.436 E-score.

With ATCGTCAA, the binding signal stood at 0.079 E-score.

In the case of AACGGATC, the binding signal worked out at 0.0282 E-score. CGTTCTGC: the binding signal was -0.129 E-score.

In turn, CTCACCCA showed a binding signal of 0.0443 E-score. Regarding ATGGCGAG, the binding signal is -0.164 E-score. CCAGACCA: the binding signal was -0.192 E-score. With AAGTAGAC the figure was 0.00429 E-score; with AATACATG, 0.108 E-score; with GCCCAGAA, -0.165 E-score. Consider CATCTCGG, for which the binding signal is -0.00592 E-score. On to CGCGTAAC, for which the binding signal is 0.264 E-score. As for CAACGACG, the binding signal was -0.1 E-score. Consider GGACCTAC, for which the binding signal was -0.0536 E-score. With CCTATACA the figure was 0.231 E-score; with TACGCAGA, -0.0189 E-score; with GGAATACC, 0.124 E-score.

The sequence ATGCATAA returned a binding signal of 0.28 E-score. On to CGTCACAC, for which the binding signal is -0.186 E-score.

On to AAGATGGA, for which the binding signal is -0.177 E-score.

In the case of GTTCTCCA, the binding signal is -0.00255 E-score. As to CAGACTCC, the binding signal is -0.148 E-score. Take CTGGTCAA: the binding signal is -0.0989 E-score.

Take AGATTCTC: the binding signal worked out at 0.0838 E-score.

Consider CCCACTCA, for which the binding signal is -0.199 E-score. Turning to CAAACCGG, the binding signal is -0.00327 E-score. Take CTTGCAAA: the binding signal is -0.142 E-score.

With ACATTGTA, the binding signal was 0.222 E-score.

Turning to CGAGCACA, the binding signal was -0.0389 E-score. With CTAAAGAA the figure was 0.108 E-score; with CCCGAGCG, -0.397 E-score; with CAAAATTC, -0.00555 E-score. For CGAAACGC, the binding signal was -0.256 E-score. Regarding CAGCCTCG, the binding signal was -0.341 E-score.

In the case of GCTCCACC, the binding signal is -0.225 E-score.

Take CGCTACAC: the binding signal was -0.0954 E-score. As for AGCGGAAC, the figure is -0.107 E-score; as for ATGGCCCA, 0.0324 E-score; as for CGGATACA, 0.103 E-score.

Sequence GGGTTATA returned a binding signal of 0.0571 E-score. Regarding GGAGTCAA, the binding signal is -0.119 E-score. With GCTCAAGA the figure was -0.28 E-score.

GAGTATAA displayed a binding signal of 0.0291 E-score. With CCGGTGCA, the binding signal is -0.334 E-score. With AGTCACCC the figure was -0.346 E-score; with ACACACGT, -0.0125 E-score. As for ATTAACTA, the binding signal was determined as 0.398 E-score. As for GGGCGCAA, the figure is -0.371 E-score.

Turning to CAATTGCG, the binding signal came out at 0.247 E-score. As to CTGAGCGC, the binding signal is -0.107 E-score. In the case of CCTCCCCC, the binding signal is -0.416 E-score.

AATTCCTA gave a binding signal of 0.109 E-score. As for AGCATCGG, the figure is -0.146 E-score.

CCGTCGTA had a binding signal of 0.0228 E-score. As for GAGACGAC, the figure is -0.291 E-score. With CACTAGGA the figure was -0.0636 E-score; with GCACCAGC, -0.164 E-score.

Take AGGCCGAG: the binding signal is -0.377 E-score.

CATTAATA: the binding signal was 0.171 E-score. As for ACAATGAC, the figure is 0.00584 E-score. Turning to GCCGAAAC, the binding signal is -0.091 E-score. As for TCGATACA, the figure is 0.144 E-score; as for ATACCGAG, 0.116 E-score.

In the case of CGTGCCAC, the binding signal was -0.281 E-score.

For the sequence GAGAATCA, the binding signal was 0.132 E-score. With CCATTAGG the figure was -0.175 E-score. AGTACTAT showed a binding signal of 0.388 E-score. In turn, ATCTTTAA displayed a binding signal of 0.0286 E-score.

Sequence CTTGATTA returned a binding signal of 0.0543 E-score. With CAGTAAAG the figure was 0.00124 E-score; with AAGAGCTC, -0.165 E-score. As to TCAAGAGA, the binding signal is -0.0469 E-score. With AAATGTGG the figure was 0.0722 E-score; with GACTTGGC, -0.138 E-score; with AGAAGGGG, -0.307 E-score. For the sequence ACGCACCT, the binding signal was -0.16 E-score. In turn, CAATACAC yielded a binding signal of 0.125 E-score.

On to AGTTATAA, for which the binding signal was determined as 0.285 E-score. As for CAGCTCGA, the figure is -0.226 E-score; as for AGCACCCG, -0.341 E-score. As for CGCGAACA, the figure is -0.0529 E-score; as for CCCCGAGG, -0.291 E-score. As to CTACTACC, the binding signal is 0.303 E-score. Turning to AGTCGGTC, the binding signal was -0.215 E-score. With CCGGATAA, the binding signal amounted to 0.0373 E-score.

CTAAATGC showed a binding signal of 0.0847 E-score.

The sequence CATTACAG came in with a binding signal of 0.129 E-score. With CATGGAGA the figure was 0.0828 E-score; with GCCTGTAA, 0.0127 E-score; with GCTACAAC, 0.219 E-score. With CGAGACTA the figure was 0.0881 E-score. With AGTTTAGA the figure was 0.253 E-score. On to CGCCGTCC, for which the binding signal is -0.383 E-score. As for CTGAAACC, the figure is -0.0984 E-score; as for ACCGCTGC, -0.162 E-score; as for ACGCCGGA, -0.221 E-score. The sequence ATAGCTTA displayed a binding signal of 0.132 E-score. As for ACCGGCAC, the figure is 0.013 E-score; as for AACGTATT, 0.212 E-score; as for GCACCCGC, -0.241 E-score. As for CCACATGG, the binding signal is -0.11 E-score.

For ATCGAGGA, the binding signal is -0.178 E-score.

In the case of CGCCAAAG, the binding signal is -0.269 E-score. As for GGCAACAC, the figure is -0.309 E-score; as for TAGTAAAA, 0.332 E-score. On to AAATTTAC, for which the binding signal turned out to be 0.336 E-score.

With AGGATCTA, the binding signal amounted to 0.29 E-score. Consider ATGGACCG, for which the binding signal is -0.102 E-score. Sequence GTTACACA displayed a binding signal of 0.0782 E-score. As for AAAGCTTA, the figure is 0.176 E-score.

In the case of CGTTTCAG, the binding signal is -0.16 E-score.

Turning to AAAAGTTA, the binding signal came out at 0.191 E-score. ATACTTAA had a binding signal of 0.0668 E-score. For ATCCGAGG, the binding signal stood at 0.0827 E-score. With AGGAATCG the figure was 0.0148 E-score.
